Binding data for 3 substances are collected here from publication PMC9117617.

Sequences of proteins named here, by UniProt entry; tags and fusion partners are left off.
UniProt Q9Y2L8: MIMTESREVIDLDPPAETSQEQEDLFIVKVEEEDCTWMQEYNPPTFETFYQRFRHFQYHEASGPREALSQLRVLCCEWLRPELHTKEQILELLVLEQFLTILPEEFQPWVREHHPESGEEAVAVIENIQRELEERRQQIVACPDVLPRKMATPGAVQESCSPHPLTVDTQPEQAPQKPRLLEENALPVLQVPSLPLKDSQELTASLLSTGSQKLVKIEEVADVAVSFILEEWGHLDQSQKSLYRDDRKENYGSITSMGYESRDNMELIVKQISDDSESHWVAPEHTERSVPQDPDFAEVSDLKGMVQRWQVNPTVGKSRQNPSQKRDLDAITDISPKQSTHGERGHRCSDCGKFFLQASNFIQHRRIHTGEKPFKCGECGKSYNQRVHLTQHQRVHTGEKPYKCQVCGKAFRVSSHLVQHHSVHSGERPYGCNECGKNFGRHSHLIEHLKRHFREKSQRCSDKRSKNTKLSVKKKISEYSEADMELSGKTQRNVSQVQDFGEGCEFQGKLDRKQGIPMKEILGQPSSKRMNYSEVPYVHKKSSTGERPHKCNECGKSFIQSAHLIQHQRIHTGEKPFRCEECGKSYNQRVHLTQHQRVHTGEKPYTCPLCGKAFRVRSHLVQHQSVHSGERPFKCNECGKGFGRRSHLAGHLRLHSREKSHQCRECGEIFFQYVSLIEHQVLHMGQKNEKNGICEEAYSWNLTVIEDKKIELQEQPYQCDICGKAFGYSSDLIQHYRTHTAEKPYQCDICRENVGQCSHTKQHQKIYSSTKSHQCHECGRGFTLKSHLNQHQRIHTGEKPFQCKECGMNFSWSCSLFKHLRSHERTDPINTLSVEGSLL

No constants are given. Whether binding was seen depends on the method and setting. For some assays here: Binding seen in cells or lysates may run through a third protein. Some binding calls cover weakened binding; strength is not graded here. Tags and fused reporters may be left off the sequences shown.

In assay [1] the target is T1, GST-SETD7 (UniProt Q8WTS6).
T1 sequence: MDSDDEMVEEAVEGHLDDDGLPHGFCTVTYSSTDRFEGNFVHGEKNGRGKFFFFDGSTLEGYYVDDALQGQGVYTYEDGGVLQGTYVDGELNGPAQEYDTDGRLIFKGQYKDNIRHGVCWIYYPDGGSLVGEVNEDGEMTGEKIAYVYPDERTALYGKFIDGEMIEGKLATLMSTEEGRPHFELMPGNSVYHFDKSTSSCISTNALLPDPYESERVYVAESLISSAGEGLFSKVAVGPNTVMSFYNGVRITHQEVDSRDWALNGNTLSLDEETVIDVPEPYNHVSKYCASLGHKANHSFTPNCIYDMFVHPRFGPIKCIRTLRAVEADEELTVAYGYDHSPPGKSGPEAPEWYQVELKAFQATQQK
Nature of the assay: pull-down; GST pull-down: purified His or GST fusion proteins bound to GST beads, co-incubated at 4°C for 4 h with protease inhibitors; Western blot; both purified.

In assay [2] the target is T2, histone methyltransferase SETD7, endogenous (human (endogenous in ZR75-1)) (UniProt Q8WTS6).
T2 sequence: T1 sequence
The assay is described as follows: co-IP; endogenous proteins in ZR75-1 cell lysate (sonicated); antibodies at 4°C overnight, Protein A Agarose; Western blot; reciprocal. In general terms: In western blotting, separated proteins are transferred to a membrane and probed.

Assay [3] has as its target T3, FLAG-tagged SET7 (108–214), middle-region fragment (UniProt Q8WTS6).
T3 sequence: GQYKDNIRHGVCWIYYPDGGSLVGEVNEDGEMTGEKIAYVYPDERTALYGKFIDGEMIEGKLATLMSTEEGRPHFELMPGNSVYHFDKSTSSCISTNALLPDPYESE
The assay is described as follows: co-IP; HEK293T cells co-transfected with a MYC-tagged and a FLAG-tagged construct; anti-FLAG immunoprecipitation of cell lysates, immunoblot.

Assay [4] concerns the target T4, FLAG-tagged SET7 N-terminal region (1–107) (UniProt Q8WTS6).
T4 sequence: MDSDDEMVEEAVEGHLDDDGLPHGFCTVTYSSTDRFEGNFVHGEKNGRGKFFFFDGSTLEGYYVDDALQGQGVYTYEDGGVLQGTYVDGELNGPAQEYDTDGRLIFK
The assay is described as above.

Assay [5] concerns the target T5, FLAG-tagged SET7 (215–366), SET domain-containing fragment (UniProt Q8WTS6).
T5 sequence: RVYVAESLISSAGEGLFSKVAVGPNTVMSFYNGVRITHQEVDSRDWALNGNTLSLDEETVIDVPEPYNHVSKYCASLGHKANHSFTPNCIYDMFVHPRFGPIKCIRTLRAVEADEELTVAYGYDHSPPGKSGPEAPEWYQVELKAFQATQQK
The assay is described as above.

On to “His-tagged ZKSCAN5 (from UniProt Q9Y2L8 1-839)”, for which the binding result in assay [1] is reported as “binds”.
As to “zinc finger with KRAB and SCAN domains 5 (ZKSCAN5), endogenous (from UniProt Q9Y2L8 1-839)”, the binding entry in assay [2] is listed as “binds”.
For the substance “MYC-tagged ZKSCAN5 (from UniProt Q9Y2L8 1-839)”, the binding entry in assay [3] is “no binding”; in assay [4], “no binding”; in assay [5], “binds”.
